Data reported in PubChem BioAssay AID624417 (National Center for Advancing Translational Sciences (NCATS), 2012).
In all, about 410,000 compounds went through this assay and about 6,400 (1.6%) were called active. Inconclusive means that the source gave no clear call. Such entries were picked first, then a sample of the others. The call rests on the fitted dose curve; in most records, active means well fitted inhibition curve with a large enough effect; inconclusive means small, poorly fitted or top-dose-only effect; inactive means no such curve, though single readings can be large or run the other way. No potency is given beside an inconclusive call; the fits are too rough.
Further: nearly all actives have a fitted effect of over 55% in size.
Potency means the concentration at half of the fitted maximal effect; tags describe the fitted curve by direction and shape.

What follows are compounds tested against Glucagon-like peptide 1 receptor (Homo sapiens) (UniProt P43220) (assay: qHTS of GLP-1 Receptor Inverse Agonists (Inhibition Mode)). Settings: HEK293 GLP-1R CRE-luciferase, luminescence, 24 h, GLP-1R form is constitutively active; series mostly up to 38.3 µM.
Chain of UniProt P43220 (P43220 whole entry, looked up): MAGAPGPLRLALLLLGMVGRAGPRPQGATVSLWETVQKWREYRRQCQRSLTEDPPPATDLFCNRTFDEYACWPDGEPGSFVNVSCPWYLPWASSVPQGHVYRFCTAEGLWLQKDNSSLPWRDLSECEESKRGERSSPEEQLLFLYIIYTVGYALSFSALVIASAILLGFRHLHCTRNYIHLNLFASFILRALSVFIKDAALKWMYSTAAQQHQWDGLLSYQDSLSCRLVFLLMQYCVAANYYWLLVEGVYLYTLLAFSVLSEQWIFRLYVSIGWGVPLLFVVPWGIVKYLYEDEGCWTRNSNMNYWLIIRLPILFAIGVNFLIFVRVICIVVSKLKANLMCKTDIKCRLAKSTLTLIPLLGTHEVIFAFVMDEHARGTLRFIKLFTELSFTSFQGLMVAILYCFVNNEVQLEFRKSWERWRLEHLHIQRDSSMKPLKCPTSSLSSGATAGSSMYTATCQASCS
Procedure, shortened: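 Readout was luciferase luminescence, measured 12 min after detection reagent at room temperature. Beforehand, GLP-1R reporter HEK293 cells had sat 12 h, then received compounds for 24 hr at 37 deg C.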
For COc1ccc(N2CCN(C(=O)CCNC(=O)c3ccc(C(C)(C)C)cc3)CC2)cc1, the Potency was inconclusive [inhibitor, full curve, poor fit]. With COCCNC(=O)c1ccccc1-c1nc(-c2ccccc2Cl)no1 the Potency was “inactive”. For Cc1ccccc1NC(=O)CN1CCc2ccccc2C1, the Potency was inconclusive [inhibitor, single point]. In the case of Cc1ccc(-n2c(SCc3ccccc3C)nc3[nH]ncc3c2=O)cc1C, the Potency is reported as inconclusive [inhibitor, single point]. For CCOC(=O)C1(CC2CC2)CCN(Cc2ccc(OC)cc2F)CC1, the Potency was inconclusive [inhibitor, partial curve, poor fit]. For CCN(CC)Cc1cc(C(C)(C)C)cc(N2CCOCC2)c1O, the Potency was inconclusive [inhibitor, single point]. In the case of Nc1nc(N)c2cc(CNc3ccc(Cl)c(Cl)c3)ccc2n1, the Potency is reported as inconclusive [inhibitor, partial curve, poor fit]. In the case of Cc1ccccc1NC(=O)CCCCCN1C(=O)[C@@H]2Cc3ccccc3CN2C1=O, the Potency is reported as inconclusive [inhibitor, full curve]. With N#Cc1ccccc1CSc1nnc(-c2ccncc2)o1 the Potency was inconclusive [inhibitor, full curve, poor fit]. CCC(C)(C)NC(=S)Nc1ccc(-c2nc3ccc(C)cc3s2)cc1 was tested, and the Potency was inconclusive [inhibitor, partial curve, poor fit]. For CC(C)(C)S(=O)(=O)c1cnc2c(-c3ccc(F)cc3)cnn2c1N, the Potency was “inactive”. In the case of O=C1CN(C(=O)CSc2ccc(-c3ccc(F)cc3)nn2)c2ccccc2N1, the Potency is reported as “inactive”. With OC(CNc1ccccc1)COc1ccc(OCC(O)CNc2ccccc2)cc1 (centres undefined) the Potency was active: 6.31 µM. For Cn1nc(-c2ccc(C(=O)Nc3ccc(OC(F)(F)F)cc3)cc2)c2ccccc2c1=O, the Potency was “inactive”. Cc1cc(C)c2nc(NNC(=O)c3ccc(S(=O)(=O)N4CCc5ccccc5C4)cc3)sc2c1 was tested, and the Potency was inconclusive [inhibitor, single point]. In the case of O=C1S/C(=C\c2ccc(N3CCOCC3)o2)C(=O)N1Cc1c(F)cccc1Cl, the Potency is reported as “inactive”. CN(CC(=O)Nc1ccc(F)cc1)C(=O)c1cc(-c2ccco2)nc2ccccc12 was tested, and the Potency was inconclusive [inhibitor, single point]. With COc1ccc(-c2cc(CNC(=O)CCl)on2)cc1 the Potency was inconclusive [inhibitor, single point]. In the case of CC(C)N1CCC2(CC1)N=C(c1ccc3c(c1)OCO3)CC(c1cc(Cl)ccc1O)N2 (centres undefined), the Potency is reported as active: 11.2 µM.
